# pIC50: −log10 of the molar value.
# Molecular target: T1, Amine oxidase [flavin-containing] A (Rattus norvegicus, UniProt P21396)
# T1 sequence (P21396 whole entry): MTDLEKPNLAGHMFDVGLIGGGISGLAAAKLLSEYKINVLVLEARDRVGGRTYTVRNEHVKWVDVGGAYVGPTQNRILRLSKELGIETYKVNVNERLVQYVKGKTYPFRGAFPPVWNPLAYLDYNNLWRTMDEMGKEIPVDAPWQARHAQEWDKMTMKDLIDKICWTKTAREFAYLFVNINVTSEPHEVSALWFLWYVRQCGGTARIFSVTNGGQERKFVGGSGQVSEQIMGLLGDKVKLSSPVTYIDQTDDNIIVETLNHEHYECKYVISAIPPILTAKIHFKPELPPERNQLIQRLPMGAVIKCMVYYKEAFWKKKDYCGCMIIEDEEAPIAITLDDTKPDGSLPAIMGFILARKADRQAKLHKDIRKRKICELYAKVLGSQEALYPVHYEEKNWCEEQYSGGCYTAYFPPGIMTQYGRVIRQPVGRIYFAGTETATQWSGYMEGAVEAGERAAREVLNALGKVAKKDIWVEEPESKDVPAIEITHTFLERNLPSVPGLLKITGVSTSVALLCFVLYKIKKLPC
row,Compound,pIC50
1,Cc1cc(=O)oc2cc(OCc3ccccc3)ccc12,5.71
2,Cc1c(C)c2ccc(OCc3cccc(F)c3)cc2oc1=O,6.24
3,Cc1cccc(COc2ccc3c(C)c(C)c(=O)oc3c2)c1,5.48
4,COc1cccc(COc2ccc3c(C)c(C)c(=O)oc3c2)c1,5.82
5,Cc1c(C)c2ccc(NC(=O)c3ccccc3)cc2oc1=O,5.86
6,O=c1oc2cc(OCc3ccccc3)ccc2c2c1CCC2,5.80
7,Cc1c(C)c2cc(O)c(OCc3ccccc3)cc2oc1=O,5.03
8,O=c1ccc2ccc(CNc3ccccc3)cc2o1,4.38
9,Cc1c(C)c2ccc(OCc3cccc(C(F)(F)F)c3)cc2oc1=O,5.72
10,O=c1oc2cc(OCc3ccccc3)ccc2c2c1CCCC2,5.80
11,Cc1ccc(COc2ccc3c(C)c(C)c(=O)oc3c2)cc1,5.43
12,Cc1c(C)c2cc(OCc3ccccc3)c(O)cc2oc1=O,3.95
13,Cc1c(C)c2ccc(NCc3ccccc3)cc2oc1=O,5.80
14,Cc1c(C)c2ccc(OCc3cccc([N+](=O)[O-])c3)cc2oc1=O,7.12
15,O=c1ccc2ccc(COc3ccccc3)cc2o1,6.41

# Molecular target: T2, Amine oxidase [flavin-containing] B (Rattus norvegicus, UniProt P19643)
# T2 sequence (P19643 whole entry): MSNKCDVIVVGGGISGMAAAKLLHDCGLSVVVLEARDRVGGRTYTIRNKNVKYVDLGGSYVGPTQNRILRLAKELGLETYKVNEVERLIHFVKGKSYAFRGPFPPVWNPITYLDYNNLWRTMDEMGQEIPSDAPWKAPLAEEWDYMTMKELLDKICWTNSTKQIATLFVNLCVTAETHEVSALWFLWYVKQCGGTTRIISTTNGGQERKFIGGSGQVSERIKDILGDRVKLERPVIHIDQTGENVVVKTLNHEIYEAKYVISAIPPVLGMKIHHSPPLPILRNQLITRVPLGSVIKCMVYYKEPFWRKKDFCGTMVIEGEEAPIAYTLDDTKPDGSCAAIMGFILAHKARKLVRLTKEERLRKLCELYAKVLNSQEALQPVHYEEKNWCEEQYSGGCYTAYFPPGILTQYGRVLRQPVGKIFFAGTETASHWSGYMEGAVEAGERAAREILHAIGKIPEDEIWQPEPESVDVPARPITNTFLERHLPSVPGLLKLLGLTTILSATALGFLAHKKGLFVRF
row,Compound,pIC50
1,Cc1cc(=O)oc2cc(OCc3ccccc3)ccc12,7.74
2,Cc1c(C)c2ccc(OCc3cccc(F)c3)cc2oc1=O,8.55
3,Cc1cccc(COc2ccc3c(C)c(C)c(=O)oc3c2)c1,8.36
4,COc1cccc(COc2ccc3c(C)c(C)c(=O)oc3c2)c1,8.44
5,Cc1c(C)c2ccc(NC(=O)c3ccccc3)cc2oc1=O,6.72
6,O=c1oc2cc(OCc3ccccc3)ccc2c2c1CCC2,8.46
7,Cc1c(C)c2cc(O)c(OCc3ccccc3)cc2oc1=O,7.55
8,O=c1ccc2ccc(CNc3ccccc3)cc2o1,5.67
9,Cc1c(C)c2ccc(OCc3cccc(C(F)(F)F)c3)cc2oc1=O,8.24
10,O=c1oc2cc(OCc3ccccc3)ccc2c2ccccc12,7.30
11,O=c1oc2cc(OCc3ccccc3)ccc2c2c1CCCC2,8.46
12,Cc1ccc(COc2ccc3c(C)c(C)c(=O)oc3c2)cc1,8.21
13,Cc1c(C)c2cc(OCc3ccccc3)c(O)cc2oc1=O,5.51
14,Cc1c(C)c2ccc(NCc3ccccc3)cc2oc1=O,6.79
15,Cc1c(C)c2ccc(OCc3cccc([N+](=O)[O-])c3)cc2oc1=O,8.59
16,O=c1ccc2ccc(COc3ccccc3)cc2o1,7.07

# Molecular target: T1, Amine oxidase [flavin-containing] A
# Remark: another data set of the same source
row,Compound,inhibition at 1 µM
1,O=c1oc2cc(OCc3ccccc3)ccc2c2ccccc12,7%
